Source: PubChem BioAssay (NCI)
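Where inhibition never reached the appropriate level, the endpoint shown equals the highest concentration tested. Otherwise, values were interpolated linearly from a five-concentration, 48-hour dose response in 96-well plates. At the GI50, growth is halved. The concentration for full growth arrest is given as TGI.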

Test system: NCI-H322M lung
Assay: NCI tumour cell line growth inhibition, 48 h

`C#CCNC1CCC(c2csc(C#C)n2)=C1C` (configuration not stated) was tested. Which GI50 did it give?
Its GI50 is 23.5 µM.

What about the TGI of the same molecule?
The TGI was over 100 µM.
